Measured values from the RNAGym collection of RNA variant scans (doi:10.7554/elife.90254).
The source gives no read counts; variants with many changes may rest on few reads.

B1: LINE1-mini (parent)
chain: GGCAGAGCUCAACACAGCGUGGCAAAGUGGCUGUGGCUAGACUGCC

Variants of: B1
Test: self-cleavage, relative activity (ratio to wild type); higher = more cleavage; in vitro, sequencing; the parent is a self-cleaving ribozyme

**Q.** Which self-cleavage does the source give for GGCAGAGCUCAACACACCGUCGCAAAAUGCAUUUGGCUAGACUGCC here?
**A.** 0.04

**Q.** For AGCAGAGCUCAACACAGCGUGGCAAAGUGGCUGUGGUUAGCCUGCC, which self-cleavage is on record?
**A.** 0

**Q.** Which self-cleavage does the source give for GGCAGAGGUUAACACAGAGUGGCAAAGUGGUUGUGGCUAGACUGCC here?
**A.** 0

**Q.** With AGCAUAGCUCAACACAGCAUGGCAAAGUGGGUGUGGCUAGAGUGCC as the variant, how does the self-cleavage read?
**A.** 0.02

**Q.** With GGCGGAGAUCAACACAGCGUGGCAAAGUGCCUGUGGAUAGACUGCC as the variant, how does the self-cleavage read?
**A.** 0.15

**Q.** With GGCAGAGCUCAACACAGCGUGGCAGAGAAGGUGUGGCUAGACUGCC as the variant, how does the self-cleavage read?
**A.** 0.23

**Q.** With GGCAGAGCUCAACACAGCGUGGAAAAGUGGCUGUGGUUAGACCGCC as the variant, how does the self-cleavage read?
**A.** 0.02

**Q.** With GGCAGAACUCAACACAGCGUGUCAAAGUGGCUGUGGCUAGACUCCC as the variant, how does the self-cleavage read?
**A.** 0.34

**Q.** With GGCAGAGCUGAACACAGCGUGGCAAAAUGGUUGUGGCUAGACUGCC as the variant, how does the self-cleavage read?
**A.** 0.04

**Q.** Which self-cleavage does the source give for GGCAGAGCUCAAAACAGCGUGGCAAAGUCGCUGUGGCUAGCCAGAC here?
**A.** 0.11

**Q.** For GACAGAGCUCAAUACAACGUGGCAAAGUGGCUGUGGCUAGACUUCC, which self-cleavage is on record?
**A.** 0.13

**Q.** With GGUAGAGCUCAACACAGCGUGGCAAAGUCACUGUGCCUAGAAUGCC as the variant, how does the self-cleavage read?
**A.** 0.04

**Q.** For GGCAGAGCUCAUCACAGCGGGGCAAAGUAGCUGUGGCUAGACUCCC, which self-cleavage is on record?
**A.** 0.09

**Q.** For GGCAGAGCUCCCCACAGCGUGGCAAAGUGGCUGUGGCUAGACUGAC, which self-cleavage is on record?
**A.** 0.01

**Q.** With GGCUGAGCUGAACACAGCGUGGCUAAGUGGGUGUGGCUAGACUGCG as the variant, how does the self-cleavage read?
**A.** 0.01

**Q.** With GGCAGAGCUCAACACAGCGUGGCAUAAUGGCGGUGGCUAGACUGCC as the variant, how does the self-cleavage read?
**A.** 0.2

**Q.** Which self-cleavage does the source give for GGCAGAGUUCAACACAGCAUCGGAAAGUGGCUGUGGCUAGACUGCC here?
**A.** 0.41

**Q.** For GGCAGGGCUCAACACAGCGUGGCAAGGUGGAUGUGGCUAGACUUCG, which self-cleavage is on record?
**A.** 0.06

**Q.** With UGUAGAGCUCAACACAGCGUGACAAAGUGGCUGUGGCUACACUGCC as the variant, how does the self-cleavage read?
**A.** 0.06

**Q.** Which self-cleavage does the source give for GGAAGAGCUCAACACAGCGGGGCAAAGUGGCUGUAGCUAGACUACC here?
**A.** 0.18

**Q.** For GGCAGAGCUCAACACAGCGUGGCGAAGUGGCUGCGGCUAGACUACC, which self-cleavage is on record?
**A.** 0.02

**Q.** For GACAGAGCACAACACAGCGUGGCUAAGUGGCUGUGGAUAGACUGCC, which self-cleavage is on record?
**A.** 0.26

**Q.** Which self-cleavage does the source give for GGCAGAGUUCAACACAGCGUGGCAAACUGGCUGUCGCUAGAUUGCC here?
**A.** 0.12

**Q.** For GUCAGAGCUAAACACAGCGUGGCCAAGUUGCUGUGGGUAGACUGCC, which self-cleavage is on record?
**A.** 0.01

**Q.** Which self-cleavage does the source give for GGCAGAGCUCAACACAGCGUGGCAAAGUGGAUGUGCUCAGACUGCC here?
**A.** 0.04

**Q.** With AGCAGAGCUCAACACAUCGUGGCAAGGUGGCUGUGGCUAGACUGCC as the variant, how does the self-cleavage read?
**A.** 0.03

**Q.** Which self-cleavage does the source give for GUCAGAACCCAACACAGCGUGGCAAAGUGGAUGUGGCUAGACUGCC here?
**A.** 0.04

**Q.** Which self-cleavage does the source give for GGCAGAGCUCAACACAGCGUGGCAAAGGGGCUGUGGAGAGACUGCC here?
**A.** 0

**Q.** Which self-cleavage does the source give for GGAAGAGUUCAACACAGAGUGGCAAAGUGGCUGUGGCUAGACUGCC here?
**A.** 0.11

**Q.** For GGGAGAGCUCAACACAACGUGGCAAAGUGGCUGUGGCUAGACCGCC, which self-cleavage is on record?
**A.** 0.01

**Q.** Which self-cleavage does the source give for GGCAGAGCUCCACACAGGGUGGGAAAGUGGCUGUGGCUAGUCGGCC here?
**A.** 0

**Q.** Which self-cleavage does the source give for GGCAGAGCGCACCAUAGCGUGGCAAAGUGGCUGUGGGUAGACUGCC here?
**A.** 0.01

**Q.** With GGCAAGGCUCAACACAGCGUGGCAAAGUGGCUGUGGUUAGACUGCC as the variant, how does the self-cleavage read?
**A.** 0.14

**Q.** For GGCAGACCUCAACACAGCGUGGCAAAGUUGCUGUGGCUAUACUGCC, which self-cleavage is on record?
**A.** 0.32

**Q.** For GGGAGAGCUCAACACAGCGUGGCAAAGUGGCUGAGGCAAGACUGCC, which self-cleavage is on record?
**A.** 0.05

**Q.** With GGCAUAGCGCAACACAGCGUGGCAAAGUGGCUCUGGCUAGACUGCC as the variant, how does the self-cleavage read?
**A.** 0.03

**Q.** With GGCCGAGCUCAACACAACGUGGCAAAGUGGCUGUGGCUAGAGUGCC as the variant, how does the self-cleavage read?
**A.** 0.11

**Q.** For GGCAGAGCUCAACAGAGCGAGGCAAAGUGGCUGUGGCUAGACUCCC, which self-cleavage is on record?
**A.** 0.04

**Q.** With GGCAGAGCGCAACACAGCGUUGCAAAGUGGCUGGGGCUAGACUGCC as the variant, how does the self-cleavage read?
**A.** 0.01

**Q.** Which self-cleavage does the source give for GGCAGAGCUCAACACAGCGCGUUAAGGUGGCUGUGGCUAGACUGCC here?
**A.** 0.49

**Q.** With GCCAGAGCUCAACAGAGCGUGGCAACGUGGCUAUGGCUAGUCUGCC as the variant, how does the self-cleavage read?
**A.** 0.01

**Q.** Which self-cleavage does the source give for GGCCGAGCUCAACACGGCGUAGCAAAGCGGCUGUGGCUAGACUGCC here?
**A.** 0.25

**Q.** Which self-cleavage does the source give for GGCAGAGCUCAUCACAGCGUGGCAAAGUGGCUGUAACUAGACUGCC here?
**A.** 0.1

**Q.** Which self-cleavage does the source give for GACAGAGCUCAACACAGCGUGGCAAAGUCACUUUGGGUAGACUGCA here?
**A.** 0.11

**Q.** For GGCAGAGCUCAAUACAGCGUGUCAAAGUGGCUAUGGCUAGACUGCC, which self-cleavage is on record?
**A.** 0.16

**Q.** For GCCAGAGCUCAACACAGCGUGGCAAAGUGGAUGUUGCUAGACUGCA, which self-cleavage is on record?
**A.** 0.03

**Q.** With GGCAGAGCUCAAUACAGCGUGGCAAAGUGGCUGUGUCUCGACUGCA as the variant, how does the self-cleavage read?
**A.** 0.01

**Q.** With GGCAGAGCUCAACACAGCAUGGCAAAGUGGUUGUGGCUAGAAUGCC as the variant, how does the self-cleavage read?
**A.** 0.5

**Q.** For GGCAGGGCUCAACACAGCGUGGCAAAGUGACUGUGGCUAGAAUGCG, which self-cleavage is on record?
**A.** 0.13

**Q.** With GGCAGAGCUCAACACAGCGCGGCAAAGUGGCUGUGACUAGACAGCC as the variant, how does the self-cleavage read?
**A.** 0.01

**Q.** For GGCAGAGCUCAACUCAGCGUGGCAAAGUGGCUGGGGCUAGACCACC, which self-cleavage is on record?
**A.** 0.02

**Q.** For GGCAGAGCUCAACACAGCGUGGCAAAGGGGCUGUGGAUAGACUGCU, which self-cleavage is on record?
**A.** 0

**Q.** With GGCAGGGCCAAACACAGCAUGGCAAAGUGGCUGUGGCUAGACUGCC as the variant, how does the self-cleavage read?
**A.** 0.02

**Q.** With GGUAGAGCUCGACACAGCGUGGCAAAGUGGCUGAAGCUAGACUGCC as the variant, how does the self-cleavage read?
**A.** 0.05

**Q.** With GGCAGAGAUCAACACAGCGAGGCAAAGUGGCUGUGGCUAAACUGCC as the variant, how does the self-cleavage read?
**A.** 0.11

**Q.** For GACAGAGCUGAACACAGCGUGGCAAAGUGGCUGUGGCUAGAUUGCA, which self-cleavage is on record?
**A.** 0.01
